Consider four molecules from US20120100139A1 (APTEVO RESEARCH AND DEVELOPMENT, published 2012).

The target of assay [1] is T1, CD80-mIg (Ancell Catalog #510-020) (UniProt P33681 35-242).
T1 construct: Bought reagent; also called CD80-mIgG; sCD80
T1 sequence (looked up): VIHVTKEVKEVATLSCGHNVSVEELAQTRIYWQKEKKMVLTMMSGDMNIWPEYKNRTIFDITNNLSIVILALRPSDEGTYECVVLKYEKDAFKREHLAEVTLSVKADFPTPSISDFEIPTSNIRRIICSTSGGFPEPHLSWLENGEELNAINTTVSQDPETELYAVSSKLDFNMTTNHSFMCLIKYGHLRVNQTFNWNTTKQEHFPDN
Kind of assay: SPR (BIAcore T100), CD80-mIgG immobilized on CM5; bivalent analyte model, second site. The procedure:
(§1) Surface plasmon resonance (SPR) measurements were performed on a BIAcore™ T100 SPR (Pharmacia Biotech AB, Uppsala) using HBS-EP+ (GE Healthcare) as a running buffer. […] CTLA4-containing constructs were injected for 150 seconds, at a flow rate of 10 μl/min, in a series of concentrations from 5 nM to 1 μM. Dissociation was monitored for 600 seconds, and the surface was regenerated by injecting 50 mM sodium citrate, 500 mM sodium chloride, pH 4.0, for 60 seconds. […] Data were analyzed using BiaEvaluation for the T100 software (version 2.0.1, GE Healthcare).

The target of assay [2] is T2, Murine CD86-mIgG (R&D Systems, Inc) (murine, UniProt P42082 24-244, limits assumed).
T2 construct: also called muCD86
T2 sequence (looked up): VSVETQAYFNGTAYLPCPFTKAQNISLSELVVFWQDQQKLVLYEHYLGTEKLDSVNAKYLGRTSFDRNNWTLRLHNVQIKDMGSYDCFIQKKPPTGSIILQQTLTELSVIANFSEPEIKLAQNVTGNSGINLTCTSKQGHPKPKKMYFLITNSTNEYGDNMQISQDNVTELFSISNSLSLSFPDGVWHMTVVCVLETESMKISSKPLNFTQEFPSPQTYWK
Kind of assay: SPR (BIAcore T100), murine CD86-mIgG immobilized on CM5; bivalent analyte model, second site. How it is done: (§2) SPR measurements were performed on a BIAcore™ T100 SPR (Pharmacia Biotech AB, Uppsala) using HBS-EP+ (GE Healthcare) as a running buffer. Murine CD86-mIgG (25 μg/mL in 10 mM sodium acetate, pH 4.0, R&D Systems, Inc) was directly immobilized onto a CM5 chip using standard amine coupling chemistry (Biacore Amine Coupling Kit, GE Healthcare), with final immobilization levels of 150, 493, and 746 Ru. CTLA4-containing constructs were injected for 150 seconds, at a flow rate of 10 μl/min, in a series of concentrations from 4 nM to 8 μM. Dissociation was monitored for 600 seconds (CTLA4 constructs) or 1200 seconds (GL1 constructs), and the surface was regenerated by injecting 10 mM glycine, pH 1.7, for 60 seconds. […] Data were analyzed using BiaEvaluation for the T100 software (version 2.0.1, GE Healthcare).
On the technique in general: SPR reads the build-up and loss of mass on a sensor chip optically.

Assay [3] deals with T1, CD80-mIg (Ancell Catalog #510-020). Kind of assay: SPR (BIAcore T100), CD80-mIgG immobilized on CM5; steady-state equilibrium fit. How it is done: as §1
Assay [4] shares this target. Kind of assay: SPR (BIAcore T100), CD80-mIgG immobilized on CM5; bivalent analyte model, first site. How it is done:
as §1

Assay [5] concerns the target T2, Murine CD86-mIgG (R&D Systems, Inc). The experiment in a line: SPR (BIAcore T100), murine CD86-mIgG immobilized on CM5; steady-state equilibrium, multiple Rmax fit. How it is done: as §2
Assay [6] deals with T3, soluble IL-10 receptor 1 (IL-10R1, R&D Systems) (human, UniProt Q13651 22-235).
T3 construct: Bought soluble receptor; also called sIL10Ra; sIL10R1
T3 sequence (looked up): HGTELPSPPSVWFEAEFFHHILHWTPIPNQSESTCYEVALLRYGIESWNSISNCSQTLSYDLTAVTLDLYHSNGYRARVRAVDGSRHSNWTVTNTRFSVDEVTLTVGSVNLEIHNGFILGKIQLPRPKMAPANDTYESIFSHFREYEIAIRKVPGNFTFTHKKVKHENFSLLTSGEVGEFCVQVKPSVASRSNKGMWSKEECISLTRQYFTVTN
Kind of assay: ELISA, sIL10Ra (FIG. 12); also simultaneous with CD80 (FIG. 13). A general note: ELISA stands for enzyme-linked immunosorbent assay.

Assay [7] deals with T2, Murine CD86-mIgG (R&D Systems, Inc). The experiment in a line: SPR (BIAcore T100), murine CD86-mIgG immobilized on CM5; bivalent analyte model, first site. How it is done: as §2
The target of assay [8] is T4, CD86 on cells (WIL2-S human B-lymphoblastoid cells; HuCD86-2A2 CHO cells expressing CD86) (human, UniProt P42081 24-329).
T4 construct: whole, on cells; also called cell surface CD86
T4 sequence (looked up): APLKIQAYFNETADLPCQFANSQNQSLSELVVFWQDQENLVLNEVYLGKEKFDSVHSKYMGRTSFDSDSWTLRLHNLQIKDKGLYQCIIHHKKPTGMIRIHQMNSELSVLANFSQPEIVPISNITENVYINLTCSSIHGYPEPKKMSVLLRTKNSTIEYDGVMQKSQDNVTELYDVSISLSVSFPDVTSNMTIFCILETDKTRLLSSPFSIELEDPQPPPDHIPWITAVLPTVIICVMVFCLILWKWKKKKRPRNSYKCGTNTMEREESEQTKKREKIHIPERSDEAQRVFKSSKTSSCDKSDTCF
The experiment in a line: flow cytometry on CD86-expressing CHO cells. How it is done:
(§3) Briefly, WIL2-S or HuCD86-2A2 cells were incubated with test molecules containing a CD86 antagonist at concentrations ranging from saturation to background levels. […] After the incubation, cells were washed and a fluorophore (R-phycoerythrin) tagged F(Ab′)₂ antibody specific for the Fc portion of the xceptor molecule, IL10R-Ig fusion protein, or anti-IL10 antibody. The tagged cells were then passed through a flow cytometer and data was analyzed by plotting median fluorescence intensity of each sample.
Background: Flow cytometry measures light scatter and fluorescence of single cells or particles in a stream.

The target of assay [9] is T4, CD86 on cells (WIL2-S human …). Kind of assay: flow cytometry on WIL2-S cells. The procedure: as §3
Assay [10] concerns the target T3, soluble IL-10 receptor 1 (IL-10R1, R&D …). The experiment in a line: SPR (BIAcore T100), IL-10R1 immobilized on CM5; calculated from ka1 and kd1.
Assay [11] has the same target. Kind of assay: SPR (BIAcore T100), IL-10R1 immobilized on CM5; bivalent analyte model, first site.
Assay [12] deals with T5, PD1 ectodomain fused to a C-terminal AviTag, biotinylated (biotinylated on the AviTag with the BirA enzyme).
T5 construct: also called biotinylated PD1
T5 chain: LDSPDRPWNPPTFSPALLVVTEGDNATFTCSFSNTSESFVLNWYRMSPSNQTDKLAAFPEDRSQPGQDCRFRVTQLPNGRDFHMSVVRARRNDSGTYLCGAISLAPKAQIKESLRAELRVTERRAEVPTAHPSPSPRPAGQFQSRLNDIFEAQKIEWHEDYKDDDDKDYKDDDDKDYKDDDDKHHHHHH
The experiment in a line: SPR (BIAcore T100), biotinylated PD1 captured on neutravidin; 1:1 binding model. The procedure:
(§4) SPR measurements were performed on a BIAcore™ T100 SPR (Pharmacia Biotech AB, Uppsala) using HBS-P+ (GE Healthcare) as a running buffer. […] PDL1/2-containing constructs were injected for 120 seconds, at a flow rate of 30 μl/min, in a series of concentrations from 6 nM to 2 μM. Dissociation was monitored for 1200 seconds, and the surface was regenerated by injecting 50 mM NaOH, 1M NaCl for 30 seconds.
(§5) Data were analyzed using BiaEvaluation for the T100 software (version 2.0.1, GE Healthcare).

In assay [13] the target is T5, PD1 ectodomain fused to a C-terminal …. The experiment in a line: SPR (BIAcore T100), biotinylated PD1 captured on neutravidin; kinetic KD calculated from first site ka and kd. The procedure:
as §4, §5

B1: (CTLA4::IL10)-68 xceptor (Fc fusion)
chain: [about 120 residues not spelt out]EPKSSDKTHTCPPCPAPEAAGAPSVFLFPPKPKDTLMISRTPEVTCVVVDVSHEDPEVKFNWYVDGVEVHNAKTKPREEQYNSTYRVVSVLTVLHQDWLNGKAYACAVSNKALPAPIEKTISKAKGQPREPQVYTLPPSRDELTKNQVSLTCLVKGFYPSDIAVEWESNGQPENNYKTTPPVLDSDGSFFLYSKLTVDKSRWQQGNVFSCSVMHEALHNHYTQKSLSLSPGNSLFNQEVQIPLTESYSPNSSPGQGTQSENSCTHFPGNLPNMLRDLRDAFSRVKTFFQMKDQLDNLLLKESLLEDFKGYLGCQALSEMIQFYLEEVMPQAENQDPDIKAHVNSLGENLKTLRLRLRRCHRFLPCENKSKAVEQVKNAFNKLQEKGIYKAMSEFDIFINYIEAYMTMKIRN
The Kd is the equilibrium constant for the complex coming apart. Usually koff stands for a measure of how fast the partners let go of each other. Broadly, the kon is the rate constant with which the complex forms. Lower therefore signals slower complex formation. As for B1, the “Second Site ka” value in assay [1] came out at 0.019 s⁻¹; in assay [2], 0.0398 s⁻¹. Moreover, the entries for the “Second Site kd” value in [1] and in assay [2] were 0.0434 s⁻¹ and 0.0627 s⁻¹, respectively. In addition, the Kd in assay [3] was 37.5 nM; in assay [5], 1540 nM. The koff in [4] turned out to be 0.0145 s⁻¹; in assay [7], 0.0241 s⁻¹. Further, the on-rate constant (kon) in [4] turned out to be 977000 M⁻¹ s⁻¹; in assay [7], 10400 M⁻¹ s⁻¹. The binding result in [6] and in assay [8] was “binds” each time.

B2: (CTLA4::IL10)-75 xceptor (Fc fusion)
chain: [about 120 residues not spelt out]EPKSSDKTHTCPPCPAPEAAGAPSVFLFPPKPKDTLMISRTPEVTCVVVDVSHEDPEVKFNWYVDGVEVHNAKTKPREEQYNSTYRVVSVLTVLHQDWLNGKAYACAVSNKALPAPIEKTISKAKGQPREPQVYTLPPSRDELTKNQVSLTCLVKGFYPSDIAVEWESNGQPENNYKTTPPVLDSDGSFFLYSKLTVDKSRWQQGNVFSCSVMHEALHNHYTQKSLSLSPGQRHNNSSLNTGTQMAGHSPNSSPGQGTQSENSCTHFPGNLPNMLRDLRDAFSRVKTFFQMKDQLDNLLLKESLLEDFKGYLGCQALSEMIQFYLEEVMPQAENQDPDIKAHVNSLGENLKTLRLRLRRCHRFLPCENKSKAVEQVKNAFNKLQEKGIYKAMSEFDIFINYIEAYMTMKIRN
For the molecule B2, the “Second Site ka” value was 0.0207 s⁻¹ in assay [1] and 0.0405 s⁻¹ in assay [2]. The entries for the “Second Site kd” value in assay [1] and in [2] were 0.0431 s⁻¹ and 0.0625 s⁻¹, respectively. Also, the Kd in [3] turned out to be 28 nM; in [5], 1810 nM. Besides, the koff turned out to be 0.0124 s⁻¹ in [4] and 0.0228 s⁻¹ in [7]. The kon in assay [4] turned out to be 1.21e+06 M⁻¹ s⁻¹; in [7] it was 13200 M⁻¹ s⁻¹. Also, the binding result in assay [9] is recorded as “binds”.

B3: (CTLA4::IL10)-65 xceptor (Fc fusion)
chain: [about 120 residues not spelt out]EPKSSDKTHTCPPCPAPEAAGAPSVFLFPPKPKDTLMISRTPEVTCVVVDVSHEDPEVKFNWYVDGVEVHNAKTKPREEQYNSTYRVVSVLTVLHQDWLNGKAYACAVSNKALPAPIEKTISKAKGQPREPQVYTLPPSRDELTKNQVSLTCLVKGFYPSDIAVEWESNGQPENNYKTTPPVLDSDGSFFLYSKLTVDKSRWQQGNVFSCSVMHEALHNHYTQKSLSLSPGQRHNNSSLNTRTQKARHSPNSSPGQGTQSENSCTHFPGNLPNMLRDLRDAFSRVKTFFQMKDQLDNLLLKESLLEDFKGYLGCQALSEMIQFYLEEVMPQAENQDPDIKAHVNSLGENLKTLRLRLRRCHRFLPCENKSKAVEQVKNAFNKLQEKGIYKAMSEFDIFINYIEAYMTMKIRN
notes: CTLA4 ectodomain - Fc - linker - IL10; also called CTLA4/IL10 Xceptor
With B3, in assay [1], the “Second Site ka” value came to 0.0045 s⁻¹ and the “Second Site kd” value amounted to 0.015 s⁻¹. The Kd in assay [10] was 0.41 nM. Also, the Kd in [3] came to 233 nM. In [4], this molecule had a koff of 0.008 s⁻¹ and a kon of 190000 M⁻¹ s⁻¹. Besides, the koff in assay [11] was 0.00029 s⁻¹. Further, in [8], the binding result is “binds”.

B4: (CTLA4::PDL2)-65 xceptor (Fc fusion)
chain: [about 120 residues not spelt out]EPKSSDKTHTCPPCPAPEAAGAPSVFLFPPKPKDTLMISRTPEVTCVVVDVSHEDPEVKFNWYVDGVEVHNAKTKPREEQYNSTYRVVSVLTVLHQDWLNGKAYACAVSNKALPAPIEKTISKAKGQPREPQVYTLPPSRDELTKNQVSLTCLVKGFYPSDIAVEWESNGQPENNYKTTPPVLDSDGSFFLYSKLTVDKSRWQQGNVFSCSVMHEALHNHYTQKSLSLSPGQRHNNSSLNTRTQKARHSPNSLFTVTVPKELYIIEHGSNVTLECNFDTGSHVNLGAITASLQKVENDTSPHRERATLLEEQLPLGKASFHIPQVQVRDEGQYQCIIIYGVAWDYKYLTLKVKASYRKINTHILKVPETDEVELTCQATGYPLAEVSWPNVSVPANTSHSRTPEGLYQVTSVLRLKPPPGRNFSCVFWNTHVRELTLASIDLQSQMEPRTHPT
Turning to B4, in assay [12], the koff was found to be 0.0395 s⁻¹ and the kon was 116000 M⁻¹ s⁻¹. The dissociation constant (Kd) in assay [13] was 340 nM.
